B1: GPR68, Q15743 (parent)
chain: MGNITADNSSMSCTIDHTIHQTLAPVVYVTVLVVGFPANCLSLYFGYLQIKARNELGVYLCNLTVADLFYICSLPFWLQYVLQHDNWSHGDLSCQVCGILLYENIYISVGFLCCISVDRYLAVAHPFRFHQFRTLKAAVGVSVVIWAKELLTSIYFLMHEEVIEDENQHRVCFEHYPIQAWQRAINYYRFLVGFLFPICLLLASYQGILRAVRRSHGTQKSRKDQIQRLVLSTVVIFLACFLPYHVLLLVRSVWEASCDFAKGVFNAYHFSLLLTSFNCVADPVLYCFVSETTHRDLARLRGACLAFLTCSRTGRAREAYPLGAPEASGKSGAQGEEPELLTKLHPAFQTPNSPGSGGFPTGRLA

Variants of B1 are the subject of data set [1]. Description: cAMP reporter score (Enrich2 score, wild type = 0); higher = more signal; HEK293T, FACS bins.
Data set [2] covers variants of B1. Description: surface expression score (Enrich2 score, wild type = 0); higher = more signal; HEK293T, FACS bins.

Data on 36 variants can be found in the GPR68 mutational scans of Howard et al. (2025).

The least precise scores are not listed. Two further conditions of the source, in which the scores hardly spread, are not listed. In variant names, del marks residues removed and ins residues inserted between the two positions. For some assays here: How much ogerin was present is not stated here.

Regarding I105_Y106insG, the cAMP reporter score in data set [1] (pH 5.5) is -0.599; in data set [1] (pH 6), -0.631; in data set [1] (pH 6, modulator: ogerin), -0.466; in data set [1] (pH 6.5, modulator: ogerin) it was -0.767. Moreover, the surface expression score in data set [2] is -1.68.
Consider S108_V109insG, for which the cAMP reporter score in data set [1] (pH 5.5) is -1.2; in data set [1] (pH 6) it was 0.036; in data set [1] (pH 6, modulator: ogerin), -0.071. The surface expression score in data set [2] is -1.55.
The corresponding values for I107_S108insGS are -3.35, -0.007, -1.71 and -0.411.
Turning to V109_G110insG, the cAMP reporter score is -1.01 in data set [1] (pH 5.5); -0.787 in data set [1] (pH 6); -1.24 in data set [1] (pH 6, modulator: ogerin); -1.48 in data set [1] (pH 6.5, modulator: ogerin). In addition, the surface expression score in data set [2] was -1.85.
For I115Y, the cAMP reporter score in data set [1] (pH 5.5) is -2.17; in data set [1] (pH 6), 0.104; in data set [1] (pH 6.5, modulator: ogerin) it was -1.54. In addition, in data set [2], the surface expression score is -2.67.
I115R: the cAMP reporter score was -1.29 in data set [1] (pH 5.5); -0.776 in data set [1] (pH 6); -0.612 in data set [1] (pH 6.5, modulator: ogerin). Also, the surface expression score in data set [2] is -2.66.
For I115M, the cAMP reporter score is -0.422 in data set [1] (pH 5.5); 0.472 in data set [1] (pH 6); -0.077 in data set [1] (pH 6, modulator: ogerin); -1.23 in data set [1] (pH 6.5, modulator: ogerin). Also, the surface expression score in data set [2] was -1.41.
For the variant I115S, the cAMP reporter score was -1.26 in data set [1] (pH 5.5); -1.23 in data set [1] (pH 6); -1.06 in data set [1] (pH 6, modulator: ogerin); -1.45 in data set [1] (pH 6.5, modulator: ogerin). In data set [2], the surface expression score was -2.28.
Turning to I115E, the cAMP reporter score in data set [1] (pH 5.5) is -1.3; in data set [1] (pH 6) it was -0.348; in data set [1] (pH 6.5, modulator: ogerin), -1.08. Moreover, the surface expression score in data set [2] was -2.49.
For the variant I115Q, the cAMP reporter score is -1.97 in data set [1] (pH 5.5) and -0.683 in data set [1] (pH 6).
In the case of I115W, the cAMP reporter score in data set [1] (pH 5.5) was -1.85; in data set [1] (pH 6), -0.699; in data set [1] (pH 6, modulator: ogerin), -1.33; in data set [1] (pH 6.5, modulator: ogerin), -1.47. Besides, in data set [2], the surface expression score was -2.82.
The corresponding values for I115A are -0.61, -0.81, -0.436, -0.697 and -2.06.
Consider I115D, for which the cAMP reporter score in data set [1] (pH 5.5) is -1.98; in data set [1] (pH 6), -2.06; in data set [1] (pH 6.5, modulator: ogerin), -1.12. The surface expression score in data set [2] is -3.46.
As to I115T, the cAMP reporter score in data set [1] (pH 5.5) was -1.41; in data set [1] (pH 6), -0.7; in data set [1] (pH 6, modulator: ogerin), -1.73; in data set [1] (pH 6.5, modulator: ogerin), -1.2. In data set [2], the surface expression score is -3.17.
Take I115F: the cAMP reporter score in data set [1] (pH 5.5) was -0.96; in data set [1] (pH 6), -0.589. The surface expression score in data set [2] is -0.84.
Consider I115G, for which the cAMP reporter score in data set [1] (pH 5.5) was -0.429; in data set [1] (pH 6) it was 0.729; in data set [1] (pH 6.5, modulator: ogerin), -0.401. For the same variant, the surface expression score in data set [2] was -0.823.
As for I115H, the cAMP reporter score is -0.848 in data set [1] (pH 5.5); -0.935 in data set [1] (pH 6); -0.246 in data set [1] (pH 6, modulator: ogerin); -1.96 in data set [1] (pH 6.5, modulator: ogerin). For the same variant, the surface expression score in data set [2] was -2.82.
For I115N the same measures were -1.89, -1.69, -1.58, -1.6 and -1.87.
In the case of I115V, the cAMP reporter score in data set [1] (pH 5.5) is 0.74; in data set [1] (pH 6, modulator: ogerin) it was -0.414; in data set [1] (pH 6.5, modulator: ogerin) it was -0.362. Moreover, the surface expression score in data set [2] was -1.71.
For the variant C113_C114del, the cAMP reporter score in data set [1] (pH 5.5) was -1.01; in data set [1] (pH 6) it was -0.669; in data set [1] (pH 6, modulator: ogerin), -1.26; in data set [1] (pH 6.5, modulator: ogerin), -1.32. Also, in data set [2], the surface expression score is -2.2.
For L112E, the cAMP reporter score was -0.653 in data set [1] (pH 5.5); -0.249 in data set [1] (pH 6); -2.23 in data set [1] (pH 6, modulator: ogerin); -0.921 in data set [1] (pH 6.5, modulator: ogerin).
For the variant L112P, the cAMP reporter score in data set [1] (pH 5.5) was -0.999; in data set [1] (pH 6), -0.59; in data set [1] (pH 6, modulator: ogerin), -0.648; in data set [1] (pH 6.5, modulator: ogerin), -0.41. Also, in data set [2], the surface expression score is -0.675.
In the case of L112G, the cAMP reporter score in data set [1] (pH 5.5) is 0.326; in data set [1] (pH 6, modulator: ogerin), -2.85; in data set [1] (pH 6.5, modulator: ogerin), 0.096.
In the case of L112T, the cAMP reporter score is 0.429 in data set [1] (pH 5.5) and -0.654 in data set [1] (pH 6, modulator: ogerin). Besides, in data set [2], the surface expression score is -0.402.
In the case of L112Q, the cAMP reporter score in data set [1] (pH 5.5) was -0.421. The surface expression score in data set [2] was -0.288.
For L112S, the cAMP reporter score was -1.07 in data set [1] (pH 5.5) and -0.43 in data set [1] (pH 6.5, modulator: ogerin). In addition, the surface expression score in data set [2] is -3.84.
As to L112N, the cAMP reporter score was -0.486 in data set [1] (pH 5.5) and -0.432 in data set [1] (pH 6.5, modulator: ogerin).
L112H: the cAMP reporter score in data set [1] (pH 5.5) was -0.402; in data set [1] (pH 6) it was 1.65; in data set [1] (pH 6, modulator: ogerin), -0.637; in data set [1] (pH 6.5, modulator: ogerin), 0.48. Besides, the surface expression score in data set [2] was -0.138.
For the variant L112M, the cAMP reporter score in data set [1] (pH 5.5) is -0.105; in data set [1] (pH 6, modulator: ogerin) it was 0.272; in data set [1] (pH 6.5, modulator: ogerin), -0.6. Moreover, the surface expression score in data set [2] stood at 0.015.
The corresponding values for L112Y are -2.44, -1.86, -1.7 and -0.047.
On to C113_C114insG, for which the cAMP reporter score is -2.55 in data set [1] (pH 5.5); -0.925 in data set [1] (pH 6); -1.73 in data set [1] (pH 6, modulator: ogerin); -0.921 in data set [1] (pH 6.5, modulator: ogerin). The surface expression score in data set [2] is -2.71.
I105_Y106del: the cAMP reporter score in data set [1] (pH 5.5) was -1.64; in data set [1] (pH 6), -2.66; in data set [1] (pH 6.5, modulator: ogerin) it was -0.889.
As for I107_S108insGSG, the cAMP reporter score was -0.412 in data set [1] (pH 5.5) and -0.683 in data set [1] (pH 6, modulator: ogerin).
Y106_I107del: the cAMP reporter score is 0.163 in data set [1] (pH 5.5); -1.07 in data set [1] (pH 6, modulator: ogerin); -1.52 in data set [1] (pH 6.5, modulator: ogerin). Further, the surface expression score in data set [2] is -3.04.
In the case of I115_V117del, the cAMP reporter score in data set [1] (pH 5.5) was -1.39; in data set [1] (pH 6), 0.148; in data set [1] (pH 6, modulator: ogerin), -0.887; in data set [1] (pH 6.5, modulator: ogerin), -0.167. In data set [2], the surface expression score is -3.29.
The corresponding values for F111del are -1.62, -1.01, -1.49, -1.36 and -1.84.
